The record followed here is publication PMC12820563, “FoxP3 forms a head-to-head dimer in vivo and stabilizes its multimerization on adjacent microsatellites”.

The other results are listed elsewhere or left out.

The target in the experiment is T1, MBP-FoxP1dN (Mus musculus, UniProt P58462 326-579).
T1 sequence: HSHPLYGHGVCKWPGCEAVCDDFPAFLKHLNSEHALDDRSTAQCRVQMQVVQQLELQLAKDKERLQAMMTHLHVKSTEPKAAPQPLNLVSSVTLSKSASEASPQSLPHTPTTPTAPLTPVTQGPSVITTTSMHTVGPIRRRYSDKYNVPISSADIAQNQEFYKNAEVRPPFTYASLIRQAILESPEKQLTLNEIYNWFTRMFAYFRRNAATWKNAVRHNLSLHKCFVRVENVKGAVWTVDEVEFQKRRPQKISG
The experiment is described as follows: PD-seq (MBP pull-down with sequencing); 20 mM Tris-HCl pH 7.5, 100 mM NaCl, 1.5 mM MgCl2, 0.4 uM protein, 0.1 uM dsDNA library, 30 min, room temperature, amylose pull-down; high values mean tight binding. The following applies: protein: recombinant; tags: His6-MBP; chain copies: 2; dsDNA, one strand shown. The procedure, abridged:
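A degenerate double-stranded DNA library, filled in with Klenow, was added at 0.1 µM to 0.4 µM His6-MBP-tagged mouse FoxP3 or FoxP1 fragment lacking the N-terminus, expressed in E. coli. Incubation lasted 30 min at room temperature in Tris pH 7.5 buffer with NaCl and MgCl2, after which complexes were collected on amylose resin, washed three times, digested with proteinase K to free the DNA, barcoded by PCR and sequenced by Illumina. Binding is the pooled-replicate reads-per-million enrichment of pull-down over input.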
Consider “GATGATTGTTCTCCCAGCTGATGAATTTAAAAGGTCGAGTAAACAAATTTTCCTAATCTTTCTGTTCAAGCGCCATCTAC”, for which the binding signal is 0.788 RPM ratio (pull-down/input).

Take “GATGATTGTTCTCCCAGCTGATGAATTCTTCCGATCGAGTAAACAAATTTTCCTAATCTTTCTGTTCAAGCGCCATCTAC”: the binding signal was 0.898 RPM ratio (pull-down/input).

“GATGATTGTTCTCCCAGCTGATGAATTGGCGGGATCGAGTAAACAAATTTTCCTAATCTTTCTGTTCAAGCGCCATCTAC”: the binding signal was 0.831 RPM ratio (pull-down/input).

“GATGATTGTTCTCCCAGCTGATGAATTGACCACCTCGAGTAAACAAATTTTCCTAATCTTTCTGTTCAAGCGCCATCTAC”: the binding signal was 0.86 RPM ratio (pull-down/input).

Turning to “GATGATTGTTCTCCCAGCTGATGAATTTTACGCTTCGAGTAAACAAATTTTCCTAATCTTTCTGTTCAAGCGCCATCTAC”, the binding signal is 0.953 RPM ratio (pull-down/input).

Take “GATGATTGTTCTCCCAGCTGATGAATTGGACCGATCGAGTAAACAAATTTTCCTAATCTTTCTGTTCAAGCGCCATCTAC”: the binding signal is 0.795 RPM ratio (pull-down/input).

In the case of “GATGATTGTTCTCCCAGCTGATGAATTCAGTTTCTCGAGTAAACAAATTTTCCTAATCTTTCTGTTCAAGCGCCATCTAC”, the binding signal was 0.943 RPM ratio (pull-down/input).

Consider “GATGATTGTTCTCCCAGCTGATGAATTGTCTAAATCGAGTAAACAAATTTTCCTAATCTTTCTGTTCAAGCGCCATCTAC”, for which the binding signal is 1.3 RPM ratio (pull-down/input).

Take “GATGATTGTTCTCCCAGCTGATGAATTGTCATGATCGAGTAAACAAATTTTCCTAATCTTTCTGTTCAAGCGCCATCTAC”: the binding signal was 1.12 RPM ratio (pull-down/input).

In the case of “GATGATTGTTCTCCCAGCTGATGAATTACGATTCTCGAGTAAACAAATTTTCCTAATCTTTCTGTTCAAGCGCCATCTAC”, the binding signal was 1.03 RPM ratio (pull-down/input).

With “GATGATTGTTCTCCCAGCTGATGAATTGCGGAAATCGAGTAAACAAATTTTCCTAATCTTTCTGTTCAAGCGCCATCTAC”, the binding signal is 1.3 RPM ratio (pull-down/input).

As to “GATGATTGTTCTCCCAGCTGATGAATTAGCAAACTCGAGTAAACAAATTTTCCTAATCTTTCTGTTCAAGCGCCATCTAC”, the binding signal is 0.989 RPM ratio (pull-down/input).

Turning to “GATGATTGTTCTCCCAGCTGATGAATTACACAGCTCGAGTAAACAAATTTTCCTAATCTTTCTGTTCAAGCGCCATCTAC”, the binding signal is 1.1 RPM ratio (pull-down/input).

On to “GATGATTGTTCTCCCAGCTGATGAATTGTGAGCGTCGAGTAAACAAATTTTCCTAATCTTTCTGTTCAAGCGCCATCTAC”, for which the binding signal is 1.03 RPM ratio (pull-down/input).

For the sequence “GATGATTGTTCTCCCAGCTGATGAATTCCCCGCGTCGAGTAAACAAATTTTCCTAATCTTTCTGTTCAAGCGCCATCTAC”, the binding signal was 0.891 RPM ratio (pull-down/input).

Consider “GATGATTGTTCTCCCAGCTGATGAATTCTCGTCTTCGAGTAAACAAATTTTCCTAATCTTTCTGTTCAAGCGCCATCTAC”, for which the binding signal is 0.854 RPM ratio (pull-down/input).

Turning to “GATGATTGTTCTCCCAGCTGATGAATTAAATTATTCGAGTAAACAAATTTTCCTAATCTTTCTGTTCAAGCGCCATCTAC”, the binding signal is 1.03 RPM ratio (pull-down/input).

“GATGATTGTTCTCCCAGCTGATGAATTCGGCTCATCGAGTAAACAAATTTTCCTAATCTTTCTGTTCAAGCGCCATCTAC”: the binding signal is 0.763 RPM ratio (pull-down/input).

Turning to “GATGATTGTTCTCCCAGCTGATGAATTGTCGAGCTCGAGTAAACAAATTTTCCTAATCTTTCTGTTCAAGCGCCATCTAC”, the binding signal was 0.901 RPM ratio (pull-down/input).

For “GATGATTGTTCTCCCAGCTGATGAATTATGGCTGTCGAGTAAACAAATTTTCCTAATCTTTCTGTTCAAGCGCCATCTAC”, the binding signal was 0.925 RPM ratio (pull-down/input).

For the sequence “GATGATTGTTCTCCCAGCTGATGAATTCAAAGGGTCGAGTAAACAAATTTTCCTAATCTTTCTGTTCAAGCGCCATCTAC”, the binding signal was 0.741 RPM ratio (pull-down/input).

Turning to “GATGATTGTTCTCCCAGCTGATGAATTGCCCAGTTCGAGTAAACAAATTTTCCTAATCTTTCTGTTCAAGCGCCATCTAC”, the binding signal is 0.931 RPM ratio (pull-down/input).

Regarding “GATGATTGTTCTCCCAGCTGATGAATTTCAATGCTCGAGTAAACAAATTTTCCTAATCTTTCTGTTCAAGCGCCATCTAC”, the binding signal is 0.9 RPM ratio (pull-down/input).

On to “GATGATTGTTCTCCCAGCTGATGAATTTTTTATTTCGAGTAAACAAATTTTCCTAATCTTTCTGTTCAAGCGCCATCTAC”, for which the binding signal is 1.04 RPM ratio (pull-down/input).

As for “GATGATTGTTCTCCCAGCTGATGAATTTTGAGACTCGAGTAAACAAATTTTCCTAATCTTTCTGTTCAAGCGCCATCTAC”, the binding signal is 0.862 RPM ratio (pull-down/input).

Take “GATGATTGTTCTCCCAGCTGATGAATTTTCTGTTTCGAGTAAACAAATTTTCCTAATCTTTCTGTTCAAGCGCCATCTAC”: the binding signal was 0.977 RPM ratio (pull-down/input).

As to “GATGATTGTTCTCCCAGCTGATGAATTACGCAATTCGAGTAAACAAATTTTCCTAATCTTTCTGTTCAAGCGCCATCTAC”, the binding signal was 1.16 RPM ratio (pull-down/input).

“GATGATTGTTCTCCCAGCTGATGAATTTGCCTATTCGAGTAAACAAATTTTCCTAATCTTTCTGTTCAAGCGCCATCTAC”: the binding signal was 0.954 RPM ratio (pull-down/input).

With “GATGATTGTTCTCCCAGCTGATGAATTCCCAAGTTCGAGTAAACAAATTTTCCTAATCTTTCTGTTCAAGCGCCATCTAC”, the binding signal was 0.774 RPM ratio (pull-down/input).

Take “GATGATTGTTCTCCCAGCTGATGAATTTCCCAAGTCGAGTAAACAAATTTTCCTAATCTTTCTGTTCAAGCGCCATCTAC”: the binding signal is 0.82 RPM ratio (pull-down/input).

Regarding “GATGATTGTTCTCCCAGCTGATGAATTGTAACAATCGAGTAAACAAATTTTCCTAATCTTTCTGTTCAAGCGCCATCTAC”, the binding signal is 1.7 RPM ratio (pull-down/input).

For the sequence “GATGATTGTTCTCCCAGCTGATGAATTCTTGGGTTCGAGTAAACAAATTTTCCTAATCTTTCTGTTCAAGCGCCATCTAC”, the binding signal is 0.897 RPM ratio (pull-down/input).
